Consider 64 cell lines from the supplement of paper PMC4967469.

Lines with a small IC50 respond at low doses; a limit (>, <) means that the fit lies beyond the doses tested. AUC is the area under the same curve over the 256-fold range up to the top dose, as a fraction: 1 means no effect, lower means more sensitive.

Compound in this assay: Cn1c(=O)n(-c2ccc(C(C)(C)C#N)cc2)c2c3cc(-c4cnc5ccccc5c4)ccc3ncc21 [NVP-BEZ235]
Kind of assay: Viability of human cancer cell lines after 72 h of drug (GDSC screen). Here is the method: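 Human cancer cell lines in 384-well plates, medium with 10% serum, drug for 72 h over a 256-fold dose range (nine 2-fold or five 4-fold steps up to the top dose). Adherent lines were fixed and stained with the nucleic acid dye Syto60, suspension lines read with resazurin; signal relative to control wells, capped at 0 and 100%. One two-parameter sigmoid per drug and line, fitted in a mixed model over all curves with the slope shared within a line.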

As usually defined, the IC50 is the midpoint of a concentration-inhibition curve. Turning to “MFE-319 (endometrium, adherent, top dose 2 µM)”, the AUC was 0.081 and the IC50 is under 0.00781 µM.

For the cell line “MFH-ino (soft tissue, adherent, top dose 0.25 µM)”, the AUC is 0.486 and the IC50 is 0.0142 µM.

Take “MFM-223 (breast, adherent, top dose 0.25 µM)”: the AUC was 0.788 and the IC50 is 0.108 µM. Taken in the same sequence, the figures for “MG-63 (osteosarcoma, adherent, top dose 0.25 µM)” were 0.49 and 0.0146 µM.

For the cell line “MHH-CALL-2 (B-cell leukaemia, suspension, top dose 0.25 µM)”, the AUC worked out at 0.785 and the IC50 was determined as 0.0786 µM. Taken in the same sequence, the figures for “MHH-ES-1 (Ewing sarcoma, adherent, top dose 0.25 µM)” were 0.681 and 0.0496 µM. Taken in the same sequence, the figures for “MHH-NB-11 (neuroblastoma, adherent, top dose 0.25 µM)” were 0.902 and over 0.25 µM. Take “MHH-PREB-1 (B-cell leukaemia, suspension, top dose 0.25 µM)”: the AUC was 0.476 and the IC50 turned out to be 0.0135 µM.

On to “MIA-PaCa-2 (pancreas, adherent, top dose 0.25 µM)”, for which the AUC came out at 0.638 and the IC50 came out at 0.0391 µM. As for MKN1 (stomach, adherent, top dose 2 µM), the AUC worked out at 0.178 and the IC50 was 0.0125 µM. Taken in the same sequence, the figures for “MKN7 (stomach, adherent, top dose 0.25 µM)” were 0.761 and 0.119 µM. On to “MKN28 (stomach, adherent, top dose 0.25 µM)”, for which the AUC worked out at 0.838 and the IC50 is 0.174 µM. Take “ML-2 (acute myeloid leukaemia, suspension, top dose 0.25 µM)”: the AUC was 0.868 and the IC50 stood at 0.186 µM. Taken in the same sequence, the figures for “MLMA (hairy cell leukaemia, semi-adherent, top dose 0.25 µM)” were 0.733 and 0.0728 µM. In the case of “MM1S (myeloma, suspension, top dose 0.25 µM)”, the AUC turned out to be 0.511 and the IC50 was found to be 0.0167 µM. Taken in the same sequence, the figures for “MN-60 (B-cell leukaemia, suspension, top dose 0.25 µM)” were 0.799 and 0.126 µM. Regarding “MOG-G-CCM (glioma, adherent, top dose 0.25 µM)”, the AUC stood at 0.713 and the IC50 was 0.07 µM.

On to “MOG-G-UVW (glioma, adherent, top dose 0.25 µM)”, for which the AUC was determined as 0.518 and the IC50 turned out to be 0.0174 µM. Taken in the same sequence, the figures for “MOLM-13 (acute myeloid leukaemia, suspension, top dose 0.25 µM)” were 0.658 and 0.0417 µM. As to “MOLM-16 (acute myeloid leukaemia, suspension, top dose 0.25 µM)”, the AUC amounted to 0.644 and the IC50 is 0.0371 µM. Turning to “MOLP-8 (myeloma, suspension, top dose 0.25 µM)”, the AUC worked out at 0.672 and the IC50 was found to be 0.046 µM. Taken in the same sequence, the figures for “MOLT-4 (lymphoblastic leukaemia, suspension, top dose 0.25 µM)” were 0.56 and 0.022 µM. Regarding “MOLT-13 (T-cell lymphoblastic leukaemia, suspension, top dose 0.25 µM)”, the AUC stood at 0.81. With “MOLT-16 (T-cell lymphoblastic leukaemia, suspension, top dose 0.25 µM)”, the AUC amounted to 0.539 and the IC50 came out at 0.0195 µM. Taken in the same sequence, the figures for “MONO-MAC-6 (acute myeloid leukaemia, suspension, top dose 0.25 µM)” were 0.733 and 0.0755 µM. Take “MPP-89 (mesothelioma, adherent, top dose 0.25 µM)”: the AUC came to 0.601 and the IC50 was 0.0321 µM.

With “MRK-nu-1 (breast, suspension, top dose 0.25 µM)”, the AUC stood at 0.788 and the half-inhibitory concentration (IC50) was 0.0999 µM. Taken in the same sequence, the figures for “MS751 (cervix, adherent, top dose 0.25 µM)” were 0.882 and 0.229 µM.

For the cell line “MS-1 (small cell lung carcinoma, suspension, top dose 0.25 µM)”, the AUC came out at 0.845 and the IC50 stood at 0.153 µM. On to “MSTO-211H (mesothelioma, adherent, top dose 0.25 µM)”, for which the AUC came to 0.7 and the IC50 is 0.0535 µM. For the cell line “MV-4-11 (leukaemia, suspension, top dose 0.25 µM)”, the AUC stood at 0.62 and the IC50 came out at 0.0313 µM. Regarding “MY-M12 (leukaemia, suspension, top dose 0.25 µM)”, the AUC amounted to 0.465 and the IC50 came to 0.0124 µM. Take “MZ1-PC (pancreas, adherent, top dose 0.25 µM)”: the AUC worked out at 0.85 and the IC50 was over 0.25 µM. Taken in the same sequence, the figures for “MZ2-MEL (melanoma, adherent, top dose 0.25 µM)” were 0.559 and 0.0233 µM. Taken in the same sequence, the figures for “MZ7-mel (melanoma, adherent, top dose 0.25 µM)” were 0.89 and over 0.25 µM. Taken in the same sequence, the figures for “Mo-T (hairy cell leukaemia, suspension, top dose 0.25 µM)” were 0.732 and 0.0729 µM. With “NALM-6 (B-cell leukaemia, suspension, top dose 0.25 µM)”, the AUC came out at 0.679 and the half-inhibitory concentration (IC50) stood at 0.045 µM.

With “NAMALWA (Burkitt lymphoma, suspension, top dose 0.25 µM)”, the AUC is 0.645 and the IC50 turned out to be 0.0367 µM.

For the cell line “NB1 (neuroblastoma, semi-adherent, top dose 0.25 µM)”, the AUC amounted to 0.815 and the IC50 was 0.155 µM. Taken in the same sequence, the figures for “NB5 (neuroblastoma, adherent, top dose 0.25 µM)” were 0.638 and 0.0379 µM.

Turning to “NB6 (neuroblastoma, adherent, top dose 0.25 µM)”, the AUC stood at 0.88 and the IC50 is over 0.25 µM. Taken in the same sequence, the figures for “NB7 (neuroblastoma, adherent, top dose 0.25 µM)” were 0.845 and 0.193 µM. As to “NB10 (neuroblastoma, adherent, top dose 0.25 µM)”, the AUC came out at 0.959 and the IC50 was over 0.25 µM. On to “NB12 (neuroblastoma, adherent, top dose 0.25 µM)”, for which the AUC stood at 0.898 and the IC50 is over 0.25 µM. Consider “NB13 (neuroblastoma, adherent, top dose 0.25 µM)”, for which the AUC turned out to be 0.808 and the IC50 came to 0.112 µM.

In the case of “NB14 (neuroblastoma, adherent, top dose 0.25 µM)”, the AUC came out at 0.722 and the IC50 worked out at 0.0637 µM.

Regarding “NB17 (neuroblastoma, adherent, top dose 0.25 µM)”, the AUC came out at 0.934 and the IC50 was over 0.25 µM. Turning to “NB69 (neuroblastoma, adherent, top dose 0.25 µM)”, the AUC turned out to be 0.578 and the IC50 was determined as 0.0249 µM. Taken in the same sequence, the figures for “NB(TU)1-10 (neuroblastoma, adherent, top dose 0.25 µM)” were 0.986 and over 0.25 µM. In the case of “NB-4 (acute myeloid leukaemia, suspension, top dose 0.25 µM)”, the AUC worked out at 0.712 and the IC50 is 0.0543 µM. In the case of “NCC010 (kidney, adherent, top dose 0.25 µM)”, the AUC stood at 0.717 and the IC50 was found to be 0.0678 µM. With “NCC021 (kidney, adherent, top dose 0.25 µM)”, the AUC was 0.753 and the IC50 was determined as 0.0961 µM. Turning to “NCI-H23 (lung adenocarcinoma, adherent, top dose 0.25 µM)”, the AUC was 0.828 and the IC50 is 0.152 µM. Taken in the same sequence, the figures for “NCI-H28 (mesothelioma, adherent, top dose 0.25 µM)” were 0.634 and 0.0414 µM. Consider “NCI-H64 (small cell lung carcinoma, suspension, top dose 0.25 µM)”, for which the AUC turned out to be 0.918 and the IC50 was 0.203 µM. As for “NCI-H69 (small cell lung carcinoma, suspension, top dose 0.25 µM)”, the AUC was 0.833 and the IC50 stood at 0.188 µM. “NCI-H82 (small cell lung carcinoma, suspension, top dose 0.25 µM)”: the AUC was determined as 0.73 and the IC50 stood at 0.0675 µM. On to “NCI-H146 (small cell lung carcinoma, suspension, top dose 0.25 µM)”, for which the AUC was found to be 0.843 and the IC50 is 0.127 µM. Taken in the same sequence, the figures for “NCI-H187 (small cell lung carcinoma, suspension, top dose 0.25 µM)” were 0.832 and 0.179 µM.

For the cell line “NCI-H209 (small cell lung carcinoma, suspension, top dose 0.25 µM)”, the AUC was determined as 0.685 and the IC50 turned out to be 0.0537 µM.

As for “NCI-H211 (small cell lung carcinoma, adherent, top dose 0.25 µM)”, the AUC amounted to 0.854 and the IC50 came out at 0.188 µM. In the case of “NCI-H226 (lung squamous cell carcinoma, adherent, top dose 0.25 µM)”, the AUC was found to be 0.906 and the half-inhibitory concentration (IC50) was over 0.25 µM. Taken in the same sequence, the figures for “NCI-H322M (lung adenocarcinoma, suspension, top dose 0.25 µM)” were 0.89 and over 0.25 µM. Taken in the same sequence, the figures for “NCI-H345 (small cell lung carcinoma, suspension, top dose 0.25 µM)” were 0.945 and over 0.25 µM.
